# Results reported in PubChem BioAssay AID1745853 (National Center for Advancing Translational Sciences (NCATS), 2022).
# This is one part of the list. Further columns of the screen follow, without active or inactive calls.
# Key:
# Assay in all cases: Primary Screen for Target Class Profiling of Small Molecule Inhibitors of Methyltransferases
# [1] = biological target: Glycine N-methyltransferase (Homo sapiens) (UniProt Q14749); conditions: purified enzyme, MTase-Glo SAH luminescence; measured here: GNMT inhibition; at 40 µM; stronger effect = lower value
# Summary of the method: (§1)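 Each enzyme was assayed with SAM and its substrate. SAH formation detected by MTase-Glo luminescence; single-point 40 uM screen[…].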
# [2] = biological target: Guanidinoacetate N-methyltransferase (Homo sapiens) (UniProt Q14353); conditions: purified enzyme, MTase-Glo SAH luminescence; measured here: GAMT inhibition; at 40 µM; stronger effect = lower value
# Summary of the method: as §1
# [3] = biological target: Histamine N-methyltransferase (Homo sapiens) (UniProt P50135); conditions: purified enzyme, MTase-Glo SAH luminescence; measured here: HNMT inhibition; at 40 µM; stronger effect = lower value
# Summary of the method: as §1
# [4] = biological target: Nicotinamide N-methyltransferase (Homo sapiens) (UniProt P40261); conditions: purified enzyme, MTase-Glo SAH luminescence; measured here: NNMT inhibition; at 40 µM; stronger effect = lower value
# Summary of the method: as §1
# [5] = biological target: Phenylethanolamine N-methyltransferase (Homo sapiens) (UniProt P11086); conditions: purified enzyme, MTase-Glo SAH luminescence; measured here: PNMT inhibition; at 40 µM; stronger effect = lower value
# Summary of the method: as §1
# On the % scale 0 is the no-effect control and ±100 the full control effect.
Compound,"activity change, negative = inhibition [1]","activity change, negative = inhibition [2]","activity change, negative = inhibition [3]","activity change, negative = inhibition [4]","activity change, negative = inhibition [5]"
CCOc1ccc(N2C(=O)c3cc4occc4n3CC2(C)C(=O)NC2CCCCCCC2)cc1 (stereo unspecified),-2.34%,4.89%,3.57%,4.92%,-2.55%
CC1(C(=O)NCc2ccccc2)Cn2nc(-c3ccccc3)cc2C(=O)N1Cc1ccccc1Br (stereo unspecified),1.86%,5.06%,0.795%,-0.77%,-15.3%
CCCCCCCCCC[Si](C)(C)CCC(=O)NC(Cc1ccc(C)cc1)c1ccccc1 (stereo unspecified),-3.23%,8.24%,1.84%,-2.28%,10.8%
O=c1[nH]c2ccc(C#CCN3CCC(Cc4ccccc4)CC3)cc2[nH]1,-11%,-0.278%,-38%,-30.7%,-6.67%
C/C=C(\C)C(=O)O,,-6.43%,,-7.32%,5.8%
Cc1cc(-c2cnc(N)c3c(-c4ccc5scnc5c4)csc23)n(C)n1,-14%,-3.93%,-7.84%,-30.4%,-13.4%
CN1CCC(Nc2ncc3ncnc(Nc4ccc(F)c(Cl)c4)c3n2)CC1,,-28.7%,,-38.8%,-19.7%
C=C[C@@](C)(O)CC/C=C(\C)C(=O)O[C@@H]1[C@@H]2O[C@]2(C)[C@H]2[C@H](O[C@@H]3O[C@H](CO)[C@@H](O)[C@H](O)[C@H]3O)OC=C[C@@]12O,0.643%,1.71%,8.55%,-8.85%,-1.01%
CC1(C(=O)Nc2ccccc2)CCc2cnc(N3CCOCC3)nc21 (stereo unspecified),-9.99%,-10.8%,-6.45%,-25.5%,-13%
C=Cc1ccc(Cn2nc3n(Cc4ccc(C)cc4)c(=O)c4ccc(C(=O)NC(C)C)cc4n3c2=O)cc1,5.24%,4.71%,11.1%,2.44%,5.91%
O=C(C1CCCCC1)N1CCC(n2cc(-c3nc(-c4ccccc4)no3)nn2)CC1,-6.61%,-10.5%,-3.4%,-12.6%,-11.3%
CC(C)CCn1c(=O)c2ccccc2n2c(CCC(=O)NC(C)c3ccccc3)nnc12 (stereo unspecified),-11%,0%,1.29%,-13.5%,1.77%
COc1ccc(OC)c(CCN2C(=O)c3cc4oc(C)cc4n3CC2(C)C(=O)NC2CCCCC2)c1 (stereo unspecified),-0.836%,3.41%,0.644%,-0.608%,-3.07%
CCC#CCN1CCc2ccccc2N(CC(O)COCc2ccco2)CCC1=O (stereo unspecified),-2.63%,0.21%,3.1%,-4.72%,1.32%
O=C(Cn1nc(-c2ccccc2)c2ccccc21)N1CCN(c2ccc(F)cc2)CC1,-1.44%,1.51%,8.12%,1.54%,2.86%
COc1ccc(OC)c(CNC(=O)c2cc3n(n2)CC(C)(C(=O)NCCC(C)C)N(C)C3=O)c1 (stereo unspecified),10.1%,1.04%,8.45%,8.81%,4.96%
CCNC(=O)CC1COCCN1C(=O)c1csc(-c2cccs2)n1 (stereo unspecified),-2.14%,-3.31%,2.04%,-1.52%,0.455%
O=C(CCc1nnc2n(Cc3ccc(F)cc3)c(=O)c3ccccc3n12)NCc1ccc(F)cc1,-4.83%,1.03%,9.88%,17.4%,3.4%
CCCn1c(=O)c2ccc(C(=O)NCC(C)C)cc2n2c(=O)n(Cc3cccc(OC)c3)nc12,4.6%,1.85%,7.48%,0.845%,1.07%
Cc1cccc2c1cnn2C(=O)CCC(=O)N1CCN(c2ccccn2)CC1,-7.34%,0%,9.06%,7.81%,2.25%
O=c1cc(N2CCOCC2)oc2c(Nc3ccccn3)nccc12,-4.83%,-1.68%,-4.65%,-7.46%,-11.9%
Cc1ccc(CN2C(=O)c3cc4sccc4n3CC2(C)C(=O)NC2CCC(C)CC2)cc1 (stereo unspecified),-1.15%,4.4%,-1.16%,-2.4%,-4.86%
Cc1cccc(CN2C(=O)c3ccccc3CC2(C)C(=O)NCc2ccccc2)c1 (stereo unspecified),4.04%,1.83%,6.05%,-7.49%,0.816%
CC(C)CCN1C(=O)c2cc3occc3n2CC1(C)C(=O)NC1CCCCCC1 (stereo unspecified),4.06%,0%,7.89%,4.34%,-0.385%
COc1ccccc1NC(=O)Cn1c(=O)c2ccccc2n2nnc(-c3ccccc3)c12,2.95%,0%,1.36%,-1.84%,-1.59%
CC(C)CNC(=O)c1ccc2c(=O)n(C(C)C)c3nn(Cc4ccccc4F)c(=O)n3c2c1,-0.008%,1.69%,2.39%,-2.71%,-2.5%
O=C(c1ccccn1)N1CCC2(CNc3ccccc3[S+](=O)([O-])N2)C1 (stereo unspecified),-2.02%,-5.29%,-2.59%,-6.57%,-7.33%
O=C(CCc1nnc2n(CCc3ccccc3)c(=O)c3ccccc3n12)NCCC1=CCCCC1,-6.47%,7.13%,-0.416%,-8.65%,-5.16%
O=S(=O)(NCCn1c(-c2ccc(F)cc2)nc2ccccc21)c1cc(F)ccc1F,-0.919%,0.396%,1.42%,-8.99%,5.48%
O=C1CCN(Cc2ccncc2)CCCC(C(=O)N2CCCC2)CCN1 (stereo unspecified),-0.278%,-3.43%,0.686%,-3.4%,0.843%
